From a collection of fitness landscapes (doi:10.1016/j.celrep.2020.107928)
Whole data set: some 81,000 sequences, median “one-hybrid fitness for binding parS DNA” near -0.17, cut for the highest 2% near 0.51. This is one part of the list.

B1: Caulobacter ParB omega fusion; a variant is named by its letters at X, in order, B8GW30 (parent)
chain: MESVVVGEPGMSEGRRGLGRGLSALLGEVDAAPAQAPGEQLGGSREAPIEILQRNPDQPRRTFREEDLEDLSNSIREKGVLQPILVRPSPDTAGEYQIVAGERAWRAAQRAGLKTVPIMVRELDDLAVLEIGIIENVQRADLNVLEEALSYKVLMEKFERTQENIAQTIGKSXSHVANXMRLLXLPDEVQSYLVSGELTAXHARAIAAAADPVALAKQIIEGGLSVRETEALARKAPNLSAGKSKGGRPPRVKDTDTQALESDLSSVLGLDVSIDHRGSTGTLTITYATLEQLDDLCNRLTRGI

Variants of: B1
Assay: one-hybrid fitness for binding parS DNA (scaled: cognate 1, non-cognate 0); higher = stronger binding
Conditions: with parS DNA site
How it was run: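 Caulobacter ParB libraries with four specificity codons randomised were screened by bacterial one-hybrid selection in the E. coli USO strain, using a HIS3 reporter whose site lies 19 bp from the promoter. Selection ran for 48 hours at 37°C on M9 lacking histidine, with 0.1 mM IPTG and 5 mM 3-AT. Plasmids were Illumina-sequenced before and after selection, three replicate libraries were pooled, and variants with under 10 reads were dropped. Fitness is the log change in each variant's read ratio to wild type, rescaled against the cognate and non-cognate sites.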

one-hybrid fitness for binding parS DNA, 0.909:
RAAT

one-hybrid fitness for binding parS DNA, 0.261:
RLVF

one-hybrid fitness for binding parS DNA, 0.256:
RNFN

one-hybrid fitness for binding parS DNA, 0.999:
RIQG

one-hybrid fitness for binding parS DNA, 0.648:
RLWA

one-hybrid fitness for binding parS DNA, 0.869:
RHHT

one-hybrid fitness for binding parS DNA, ≤ 0.2:
NRQP
IENR
QYKM
FACY
ARKY
QFFY
VHQV
CDRT
HRPF
PHDG
ENHK
RDFG
MFTW
VVSL
LMMR
RYHR
HMAC
SDSQ
KPSG
AVGR
YEGT
ISRR
LYMG
SYRG
MGPG
MRAA
PVFG
SLML
NYKV
DLVW
NQME
PTSD
RNSE
CQNG
DCHG
QMME
SKLT
DVKS
IMLT
VMRY
GIYN
HRNR
DYRG
PMGQ
DELC
CIFS
PPMW
RLPF
AWSS
YPCL
CCIT
WLKG
STLG
HKKN
RVWV
LWNG
YNNS
CTPD
GVAL
GCTL
EGQG
RTYD
QPFF
QLKI
LERK
RSKV
NDVH
PTPI
SDFS
VPIN
HGGR
QEAS
MHMG
FLKM
QMQF
LAYC
LASP
LTIV
PRMV
MRTE
PAPG
GESR
GHPR
TFDE
KNCL
SRWS
PANQ
HMHS
QTYI
TVQS
VTEI
DTIS
PYFS
SNIV
TVFS
YSCS
GCEC
GWNT
WAMW
WGQR
TFMR
PKQP
QWWW
LECR
FSCG
PQAT
QRMP
KRGT
GRFT
YVSY
VRTC
SSNG
TVQF
PKRM
CSSR
IHTV
SPCA
CTRY
QGQI
QLVQ
CLSY
NAAH
SRHG
PYRE
ISSF
APCY
LPMV
QYRS
FNPT
ERIS
CSWS
KEMV
GNNG
MHIS
GGTT
GAYK
PFGS
SSHR
NELP
WNQR
KEDS
QNHR
RVIH
YSEE
CGPR
VTTI
SVPC
MWQL
EKLF
IFLS
QDLG
PAMM
SFSE
RVYL
PDAG
CAQC
LVLW
WGTP
DHST
LMFV
HNVG
FLVE
IKDR
NSCC
RRQH
ELKN
DVPW
RTYI
LIML
RDWL
LMML
VNDI
DGHR
GNSG
SVQV
TPRA
RQID
PNKS
TYEP
ACKP
SGTS
LSVK
EMAV
RNNV
RCQD
KWQS
NVPN
CRSA
DHTR
VFKY
KYRD
PHEG
ANIG
AYDS
PTHP
AWLM
WEHS
LEQG
KRFS
SYAE
ILHV
PHGV
PQCY
HLLE
KARV
LPNF
KVQL
FTHR
QHLS
ITCY
LTHM
GMGV
LMGE
AENS
LTHA
QVVS
ARPI
KMSR
MCHL
ANFR
ESSE
SHGT
REMH
KNLR
VEDV
AVPF
QCWT
QCHA
SFWQ
IYMS
GGDR
AYIG
TQIY
LLPS
HMVF
IVAC
HLKI
VILR
QLWG
TRFQ
VGTM
TAKV
PRAW
RKGW
HLKR
SKVT
NGAR
LWEG
APKV
VQWG
QAHL
KMMC
GHCT
FWRM
VDQE
SFSG
KFAV
HFRV
GLIR
RHPQ
YEEA
GMHC
APDE
HSHG
TAKE
DELG
AFDM
RRHW
ARNH
RRER
QGGK
DYDG
QQKG
MKYF
HTIK
CKIS
AEAS
NYFG
TFKD
KLDC
KSMA
LGAT
DRDT
CARF
NPWD
GTAT
VHKI
TTDQ
MNTQ
SSKK
LKQC

one-hybrid fitness for binding parS DNA, 0.223:
RSMF
WMMC

one-hybrid fitness for binding parS DNA, 0.29:
RVVM

one-hybrid fitness for binding parS DNA, 0.958:
RVLC

one-hybrid fitness for binding parS DNA, 1:
RTSG

one-hybrid fitness for binding parS DNA, 0.932:
RSAC

one-hybrid fitness for binding parS DNA, 0.302:
RENG

one-hybrid fitness for binding parS DNA, 0.226:
RMIW

one-hybrid fitness for binding parS DNA, 0.984:
RFNS
